Our source for the binding signal values is article PMC6212790.

The list shows a part of the results. At the low end of the ranking the order means little.

The target in this experiment is T1, GST-Rok-C97-191 (UniProt O34857).
T1 sequence: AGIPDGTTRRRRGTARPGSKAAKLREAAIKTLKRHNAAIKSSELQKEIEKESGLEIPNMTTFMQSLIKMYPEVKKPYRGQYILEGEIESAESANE
Put plainly: protein binding microarray.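 Further: rank score from −0.5 (least bound) to 0.5 (best bound).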 As to conditions: Rok is a gene silencer of Bacillus subtilis; high values mean tight binding; most listed sequences are background and not binding sites; double strand, one strand shown.
CGTATACA gave a binding signal of 0.145 E-score.

The sequence TACAATCA displayed a binding signal of 0.247 E-score.

In turn, CGAACAAG showed a binding signal of -0.0407 E-score.

The sequence AATTTCGG had a binding signal of 0.147 E-score.

Sequence CGAAGAGC showed a binding signal of -0.0298 E-score.

Sequence AGACCTAT registered a binding signal of 0.0709 E-score.

In the case of ACGACCTA, the binding signal is 0.00188 E-score.

For CGGCGTAC, the binding signal is -0.11 E-score.

Turning to TACGCTAA, the binding signal came to 0.0519 E-score.

GGCTTATA: the binding signal was determined as 0.16 E-score.

Sequence CCTACGAA registered a binding signal of 0.125 E-score.

Consider ATAGTACA, for which the binding signal was determined as 0.347 E-score.

In the case of GCAAATGA, the binding signal was 0.0361 E-score.

In turn, CGTGACCC returned a binding signal of -0.195 E-score.

Sequence AAGCTGCA had a binding signal of -0.104 E-score.

For ATAGTCAC, the binding signal is -0.0193 E-score.

AATACCGG returned a binding signal of 0.266 E-score.

CGGGACTC: the binding signal was -0.166 E-score.

On to TCCCACAA, for which the binding signal is 0.0517 E-score.

For AAACGCCA, the binding signal was -0.0367 E-score.

As to AAAGCATC, the binding signal was -0.231 E-score.

Turning to AGATAGCA, the binding signal came to 0.148 E-score.

Turning to CACCGAGC, the binding signal is -0.0689 E-score.

Sequence AATCCCAT gave a binding signal of 0.0708 E-score.

CAGTGGCG yielded a binding signal of -0.125 E-score.

CGGTAAGA displayed a binding signal of -0.0738 E-score.

ATAACGGC: the binding signal is 0.0469 E-score.

As for CTTTGCAA, the binding signal was -0.0434 E-score.

In turn, ATCTCGGC gave a binding signal of -0.174 E-score.

TCGGGAAA: the binding signal was -0.0763 E-score.

ATGGAGGC registered a binding signal of -0.123 E-score.

In the case of GCGAACCC, the binding signal was -0.221 E-score.

The sequence AAATTATA came in with a binding signal of 0.389 E-score.

In the case of CATAAGGA, the binding signal was -0.0502 E-score.

Turning to CGGCAATA, the binding signal came out at 0.0655 E-score.

ACGTCATA registered a binding signal of 0.0678 E-score.

The sequence CGTGCAGC gave a binding signal of -0.0438 E-score.

GAAGTATC displayed a binding signal of 0.233 E-score.

With AGAGCGAT, the binding signal was -0.0668 E-score.

With CGGCCACA, the binding signal is -0.185 E-score.

Consider GAAGCCGA, for which the binding signal is -0.0818 E-score.

Consider AGTAGCTG, for which the binding signal is 0.233 E-score.

GAATGCAC: the binding signal is -0.122 E-score.

In turn, GCGGTCAA yielded a binding signal of -0.29 E-score.

In the case of AATTCACC, the binding signal is 0.0722 E-score.

For CACCTATG, the binding signal is -0.117 E-score.

In turn, GTGTAGTA yielded a binding signal of 0.305 E-score.

On to AGCAAGGA, for which the binding signal was -0.0952 E-score.

TATCATAA: the binding signal is 0.205 E-score.

Regarding AAGGTATT, the binding signal turned out to be 0.122 E-score.

Take AATAACCT: the binding signal came out at 0.0611 E-score.

Consider ATGTACCC, for which the binding signal worked out at 0.0999 E-score.

For the sequence GGCGGTTA, the binding signal is -0.109 E-score.

Sequence AGACGCCA gave a binding signal of -0.268 E-score.

In turn, CTTGCATA came in with a binding signal of 0.142 E-score.

Take GTAGCCAA: the binding signal was -0.12 E-score.

TGCCCGAA gave a binding signal of -0.117 E-score.

With CAAGATTC, the binding signal was -0.0861 E-score.

CATCATAA gave a binding signal of 0.194 E-score.

In turn, TGAATTCA yielded a binding signal of 0.0937 E-score.

As to CATACGGG, the binding signal was -0.173 E-score.

The sequence CCCTTTTC came in with a binding signal of -0.189 E-score.

In turn, CCGCCGCA gave a binding signal of -0.252 E-score.

As for AGCTCAAA, the binding signal is -0.00791 E-score.

ACCTGGCA returned a binding signal of -0.0345 E-score.

The sequence CCGGCCCC came in with a binding signal of -0.345 E-score.

Take AAGTCATG: the binding signal turned out to be 0.0095 E-score.

On to GCCCAGAC, for which the binding signal is -0.26 E-score.

In turn, ACTGTTGA had a binding signal of 0.0617 E-score.

GAGTGAAA: the binding signal is -0.143 E-score.

The sequence CTGTACAA came in with a binding signal of 0.0696 E-score.

Regarding ATGCCGCC, the binding signal is -0.224 E-score.

Consider CGATCTCA, for which the binding signal is -0.251 E-score.

Consider ATTACGCC, for which the binding signal is -0.0244 E-score.

The sequence CTGAGGTC gave a binding signal of -0.226 E-score.

Consider TAGCGAAA, for which the binding signal is 0.164 E-score.

In turn, GCACCCGA yielded a binding signal of -0.18 E-score.

Take CTGGGCCA: the binding signal is -0.181 E-score.

Turning to CCATGAGC, the binding signal is -0.206 E-score.

As for GTGGGCTA, the binding signal is -0.197 E-score.

Turning to CACTTTTC, the binding signal came out at 0.0461 E-score.

The sequence ATATGAAC yielded a binding signal of 0.142 E-score.

On to AGTGTAAC, for which the binding signal was 0.00886 E-score.

Regarding CCGGTTTA, the binding signal is -0.0155 E-score.

GGCGGCTA displayed a binding signal of -0.0852 E-score.

Consider GCTTAAGC, for which the binding signal was -0.268 E-score.

Consider GTGAACTA, for which the binding signal amounted to 0.214 E-score.

As to ACTGGTAT, the binding signal was 0.149 E-score.

In turn, CTCATTGA displayed a binding signal of -0.1 E-score.

ACACTTGC yielded a binding signal of -0.0396 E-score.

With CTATTGTA, the binding signal stood at 0.355 E-score.

Turning to ATAAGCTC, the binding signal is -0.0268 E-score.

Regarding GTTACCGA, the binding signal came out at 0.0867 E-score.

For GAACGCCC, the binding signal was -0.158 E-score.

CAGAGTAG came in with a binding signal of -0.109 E-score.

The sequence AAGACATG gave a binding signal of -0.143 E-score.

AGAATGAT showed a binding signal of 0.217 E-score.

CGGCTCCC came in with a binding signal of -0.334 E-score.

Consider AACCCGTT, for which the binding signal was -0.048 E-score.

GTAACGAC yielded a binding signal of 0.157 E-score.

As to TCCATGCA, the binding signal is -0.0603 E-score.

For the sequence GCGAGATA, the binding signal came to 0.0526 E-score.

As to AATCAAAT, the binding signal is 0.00045 E-score.

Sequence AAAATATC had a binding signal of 0.186 E-score.

Regarding AACGGACA, the binding signal is -0.0656 E-score.

In the case of CTACCCGA, the binding signal is -0.0404 E-score.

The sequence CATGTCAA showed a binding signal of -0.0291 E-score.

Sequence CGACCAAA came in with a binding signal of -0.039 E-score.

Take CCGAATAC: the binding signal is 0.125 E-score.

AACATTCA gave a binding signal of -0.00134 E-score.

On to CGACGTGC, for which the binding signal is -0.187 E-score.

In turn, AATCACCC gave a binding signal of -0.115 E-score.

CAGGGCGA: the binding signal was -0.302 E-score.

Regarding AACCGATT, the binding signal stood at 0.11 E-score.

CGTGACTA yielded a binding signal of -0.14 E-score.

As for ATTCGGTC, the binding signal was found to be 0.134 E-score.

Turning to CATTCTAC, the binding signal came to 0.384 E-score.

GACAACAC showed a binding signal of -0.0379 E-score.

AAAAAAGA: the binding signal was -0.0705 E-score.

Turning to GGTCCCGA, the binding signal was -0.0737 E-score.

For CCCGGAAC, the binding signal was -0.0153 E-score.

Turning to AGTTTGGG, the binding signal is -0.0774 E-score.

CGCCGACA showed a binding signal of 0.0406 E-score.

Regarding TCCGGACA, the binding signal was 0.0601 E-score.

Regarding ATACGTAA, the binding signal stood at 0.371 E-score.

As for AACACTAT, the binding signal was 0.297 E-score.

ACTCGACA: the binding signal is -0.145 E-score.

AACATCCG came in with a binding signal of 0.0335 E-score.

On to GCTACCCA, for which the binding signal was -0.092 E-score.

ATTTGTGG: the binding signal came out at 0.133 E-score.

With GTATTTCA, the binding signal was 0.131 E-score.

The sequence CTCCCGCA came in with a binding signal of -0.145 E-score.

Turning to CCAACTAA, the binding signal turned out to be 0.16 E-score.

With AATCATCA, the binding signal was 0.0436 E-score.

The sequence CACGTGCG gave a binding signal of -0.226 E-score.

The sequence CAAGCTGG displayed a binding signal of -0.212 E-score.

As to GTACCGTA, the binding signal was 0.0628 E-score.

On to CGTCCCAC, for which the binding signal was -0.11 E-score.

Take CCCTCTTA: the binding signal was -0.033 E-score.

Take CAATAGTC: the binding signal was determined as 0.0177 E-score.

On to ATGGTGGA, for which the binding signal was -0.0649 E-score.

In the case of GGTCGAAC, the binding signal was -0.0654 E-score.

Consider AGAGGCCC, for which the binding signal was -0.295 E-score.

CTCCGCGC displayed a binding signal of -0.247 E-score.

CAATGTCG displayed a binding signal of 0.0121 E-score.

In turn, CACGGTTC yielded a binding signal of -0.296 E-score.

GCCCGTTA: the binding signal was -0.182 E-score.

With CCTTCGCC, the binding signal was -0.176 E-score.

In the case of CCTCGTAG, the binding signal was -0.0235 E-score.

Consider ACTTGAGC, for which the binding signal amounted to 0.191 E-score.

For CCCATCTC, the binding signal is -0.22 E-score.

On to AGTTCGGC, for which the binding signal was -0.0233 E-score.

Take CCTTGGTA: the binding signal was -0.0825 E-score.

Consider CAACACGA, for which the binding signal was -0.125 E-score.

Sequence TGGCCGAA yielded a binding signal of -0.146 E-score.

Sequence AAGTGTAT returned a binding signal of 0.272 E-score.

CCTTTAGA: the binding signal came to 0.00553 E-score.

In the case of CTAGCGAG, the binding signal amounted to 0.0237 E-score.

CCAAGGCG: the binding signal was -0.315 E-score.

Consider TCAACAAA, for which the binding signal is -0.0444 E-score.

Turning to CCGGCGGA, the binding signal was -0.304 E-score.

Sequence CGGTGAGC gave a binding signal of -0.166 E-score.

ACCGTGAG: the binding signal was -0.0654 E-score.

With CACCTCAC, the binding signal is -0.145 E-score.

In turn, ACTCCAGG came in with a binding signal of -0.249 E-score.

Take ACCGCTCT: the binding signal is -0.2 E-score.

On to CGATTCAA, for which the binding signal was found to be 0.023 E-score.

GACTCGCC yielded a binding signal of -0.192 E-score.

In turn, ACGTATTC had a binding signal of 0.168 E-score.

Sequence GGAGTACC gave a binding signal of -0.103 E-score.

The sequence CGGTTGCA yielded a binding signal of -0.0914 E-score.

The sequence ATCTCCCA registered a binding signal of -0.042 E-score.
